The other results are listed elsewhere or left out. The main result of the screen is listed elsewhere. These columns were measured beside it and carry no call. Most of these compounds were active or inconclusive in the main read-out, so they are no random draw.
experiment: beta-lactam sensitization of Mtb H37Rv, H37Rv (AID 434955);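 further: growth measured after seven days incubation then overnight dye step; 0% = bacteria only wells and 100% = bacteria with antibiotic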; conditions: M. tuberculosis H37Rv growth with meropenem, percent inhibition; measured here: primary screen without meropenem; at 25 µM

Structure (SMILES) | inhibition [%]
O=C(CCn1c(=S)[nH]c2ccccc2c1=O)NCC1CCCO1 (centres undefined) | -1.75
Cc1cc(=O)oc2c(CN3CCCC3)c(O)c(Cl)cc12 | -7.8
CCOC(=O)Nc1ccc(S(=O)(=O)N2CCOCC2)cc1 | -6.68
CSc1cccc(NC(=S)NC(=O)CCc2ccccc2)c1 | 6
Cc1cc(C(=O)Nc2c(F)cc(F)cc2Br)no1 | 1.51
O=[N+]([O-])c1cc(Cl)cc(/C=N/NC(=S)Nc2cc(S(=O)(=O)N3CCOCC3)ccc2Cl)c1O | 9.17
CCc1noc(C)c1C(=O)NC1CC(C)(C)Cc2c1cnn2-c1ccccc1 (centres undefined) | 11.3
CSc1ccccc1OCc1cc(C(=O)NC(C)Cc2cccc(C)n2)no1 (centres undefined) | 6.21
CN(CCc1ccccn1)C(=O)c1cc(COc2ccc(F)cc2F)on1 | 9.49
O=C(O)C1C2C=CC(C2)C1C(=O)Nc1cccc(Cl)c1 (centres undefined) | 4.06
CCCc1cc(=O)oc2cc(O[C@@H]3O[C@H](CO)[C@@H](O)[C@H](O)[C@H]3O)ccc12 | -2.18
CCOC(=O)Cn1c(C)cc(=O)c2cccc(C)c21 | 16.2
C=Cc1cccc(NC(=O)c2ccc(NC(=O)c3ccco3)cc2)c1 | 12.4
CC1CCN(C(=O)CSc2nc(C(C)C)nc3c2c(=O)n(C)c(=O)n3C)CC1 | 3.31
CC1(C)Cc2[nH]c3ccccc3c2C(C)(C)N1 | -4.68
COc1ccc(N2CC(C(=O)Nc3nnc(SCC(=O)NCC4CCCO4)s3)CC2=O)cc1 (centres undefined) | 9.67
COC(=O)[C@H](CCSC)NC(=O)NCCc1ccccc1F | 0.94
Cn1c(Cn2c(=O)sc3ccccc32)nnc1SCc1cccnc1 | -0.68
O=C(/C=C/c1cccc([N+](=O)[O-])c1)Nc1cccc(NC(=O)c2ccco2)c1 | 1.46
O=C(NNC1=C(C(=O)C(F)(F)F)CCC1)c1cccc(O)c1 | 3.25
O=C(CSc1ccc2nnc(-c3cccnc3)n2n1)Nc1ccc(F)cc1 | -0.15
COc1c(NC(C)=O)c2ccccc2c2ccccc12 | 1.51
CCn1c(=O)c(C(=O)NCCc2ccc(OC)c(OC)c2)c(O)c2ccccc21 | 6.36
Cn1c(=O)c2[nH]c(CNCc3ccccc3Cl)nc2n(C)c1=O | 17.2
C[n+]1ccccc1/C=C/c1ccc([N+](=O)[O-])cc1 | 1.42
Cc1ccc(CNC(=O)CSc2nnc(CNC(=O)c3ccccc3)o2)cc1 | 13.1

Structure (SMILES) | inhibition [%]
CCCCCCc1nc(C(N)=O)c2[nH]c(=O)n(-c3ccc(OCC)cc3)c2n1 | 9.43
CC(=O)Nc1ccc(SCC(=O)c2cc(C)n(C)c2C)cc1 | 34.4
Cc1nnnn1/C(=C\c1ccccc1)C(=O)OCC(=O)Nc1ccc(Cl)cc1F | 39.6
O=C(N[C@@H](Cc1ccccc1)C(=O)CCl)OCc1ccccc1 | 29.7
c1ccc(-c2ccccc2OCCN2CCCCC2)cc1 | -12.7
Cc1c(NC(=S)NC(=O)c2ccccc2Br)c(=O)n(-c2ccccc2)n1C | 2.84
O=C(N/N=C/c1ccc(-c2cccc(C(F)(F)F)c2)o1)c1ccccc1O | 37.8
COc1ccccc1NC(=O)CSC1CC(=O)N(c2ccc3c(c2)OCO3)C1=O (centres undefined) | 4.63
COc1ccc(C(=O)Nc2ccnn2C2CCN(Cc3ccncc3)CC2)cc1 | 2
C/C(=N\NC(=O)c1cc(Br)ccc1O)c1ccccn1 | 28.2
O=C(c1ccc(F)cc1Cl)N1CCN(S(=O)(=O)c2cccs2)CC1 | -4.19
COc1ccc(C2C(C#N)=C(SCC(=O)Nc3ccc(C)cc3)NC3=C2C(=O)CC(C)(C)C3)cc1 (centres undefined) | 35.6
O=C(c1ccc(NS(=O)(=O)c2cccc(F)c2)cc1)N1CCCC1 | -2.75
C/C(=N/NC(=O)c1ccc(Br)o1)c1cccc(NC(=O)c2ccc(F)cc2)c1 | -5.11
Cc1ccc(NS(=O)(=O)c2c(C)[nH]c(C)c2C(=O)N2CCCC2)cc1 | 2.46
O=C(NC1CC1)c1ccc(CS(=O)c2ccccc2)o1 (centres undefined) | -6.45
CC1C/C(=N/NC(=O)c2cccc(F)c2)c2ccc(O)cc2C1 (centres undefined) | 99.2
Cc1cccc(C(=O)NNC(=S)NC(=O)c2cccs2)c1 | 94.3
COc1ccc(OC2CCN(S(=O)(=O)c3ccc(F)cc3)CC2)cc1 | 3.59
CC(=O)CSc1nnc(-c2ccc(S(=O)(=O)N3CCC(C)CC3)cc2)o1 | -8.11
CCOC(=O)COc1ccc2nsnc2c1 | 33.8
O=C(CS(=O)(=O)c1cn(CC(=O)N2CCCC2)c2ccccc12)Nc1ccccc1F | 2.67
CCOc1cc(C(=O)OCc2ccc(C(=O)OC)o2)cc(Br)c1OC | 94.4
COc1ccc(C)cc1S(=O)(=O)N1CCCC(C(=O)N2CCN(c3ccccc3)CC2)C1 (centres undefined) | 4.56
Cc1cccc(C)c1-n1c(C)cc(/C=C2\C(=O)NN(c3ccccc3)C2=O)c1C | 34.1
O=C(NC(Cc1c[nH]c2ccccc12)c1nnc2n1CCCCC2)c1ccc(Cl)cc1 (centres undefined) | 2.55

Structure (SMILES) | inhibition [%]
COC(=O)c1ccsc1NC(=O)CCS(=O)(=O)c1ccccc1 | 1.52
N#C/C(=C\c1c(N2CCCCC2)nc2ccccn2c1=O)C(=O)NC1CCS(=O)(=O)C1 (centres undefined) | -6.35
C=CCn1c(SCC(=O)c2cc(C)n(CC3CCCO3)c2C)nnc1-c1ccccc1 (centres undefined) | -8.46
CC1CCCN(S(=O)(=O)c2coc(C(N)=O)c2)C1 (centres undefined) | 0.93
CCOC(=O)CSc1nc2c(c(=O)[nH]c(=O)n2C)n1C/C=C(/C)Cl | 1.87
O=C(/C=C/c1cccnc1)c1ccc(O)cc1 | 2.21
O=C(O)CCC1c2cc3c4cc2OC2Oc5cc6c(cc51)C(CCC(=O)O)c1cc5c7cc1OC(O6)c1cc6cc(c1)Oc1cc(cc(C(=O)O)c1)Oc1cc8cc(c1)C(Oc1cc(c(cc1C5CCC(=O)O)C3CCC(=O)O)OC(O4)c1cc(cc(c1)Oc1cc(cc(C(=O)O)c1)O8)Oc1cc(cc(C(=O)O)c1)Oc1cc(cc2c1)Oc1cc(cc(C(=O)O)c1)O6)O7 (centres undefined) | 0.26
Cc1ccc(C)c(CSC2=NCCN2S(=O)(=O)c2ccccc2)c1 | 9.04
COc1ccc(N(CC(=O)Nc2ccc(C)cn2)S(=O)(=O)c2c(C)noc2C)cc1 | 2.53
CCC(C)NC(=O)c1ccc(NC(=O)C2CCCO2)cc1 (centres undefined) | -2.41
O=[n+]1c2c(n([O-])c3c1CCCC3)CCCC2 | -2.94
O=C(COCc1cc(-c2ccc3c(c2)OCO3)on1)N1CCCCC1 | 0.53
CC(C)CC(O)(c1ccccc1)C(CN1CCOCC1)c1ccccc1 (centres undefined) | 4.11
CCOC(=O)C1(Cc2cccc(Cl)c2)CCCN(C(=O)c2cn[nH]c2)C1 (centres undefined) | -8.53
COc1ccc(N2C(=O)NC(NS(=O)(=O)c3ccc(NC(C)=O)cc3)(C(F)(F)F)C2=O)cc1 (centres undefined) | -7.47
O=c1c2[nH]c3ccccc3c2ncn1CCN1CCOCC1 | 3.43
Cc1n[nH]c(C)c1CCCOc1ccccc1 | 27.7
CSCC[C@H](NC(=O)C1CCN(C(=O)[C@H](Cc2ccccc2)NS(=O)(=O)c2ccc(C)cc2)CC1)C(=O)O | -4.37
O=C(c1cc(COc2ccc(F)cc2F)on1)N1CC[C@@H]2CCCC[C@H]2C1 | 8.08
CCOCC(=O)Nc1ccc(F)c(F)c1 | 18.1
CC1=C(C(=O)OCc2ccccc2)C(c2ccco2)n2ncnc2N1 (centres undefined) | -7.12
COc1ccc(/C=N/n2c(C3CCCCC3)n[nH]c2=S)c(OC)c1 | 3.72
Cc1ccccc1N1CCN(C2CCCN(C(=O)CN3CCCC3=O)C2)CC1 (centres undefined) | -0.66
COc1ccc(S(=O)(=O)N2CCCCC2)cc1N(C)S(=O)(=O)c1ccccc1 | 4.62
COc1ccc(C2NC3=C(CCCC3)C(C#N)(C#N)C2(C#N)C#N)cc1 (centres undefined) | -1.54
O=c1c2cnn(-c3ccccc3)c2ncn1CCc1ccccc1 | 1.74

Structure (SMILES) | inhibition [%]
CCOc1ccc(-c2cccc(NC(=O)COc3ccccc3)c2)nn1 | -0.05
Cc1ccc(SCc2c(C#N)c3ccccc3n2C)cc1 | 39.4
COCCn1c(SC(C(=O)Nc2cc(C)ccc2OC)c2ccccc2)nnc1-c1ccc(Cl)cc1 (centres undefined) | 12.1
CCCCCc1c(C)nc(N2CCN(Cc3ccc4c(c3)OCO4)CC2)[nH]c1=O | -4.38
Cc1cc(C)cc(NC(=O)c2nnn(Cc3cc(C)ccc3C)c2N)c1 | 1.84
C#Cc1ccc(C(=O)Nc2cc(C(N)=O)ccc2N2CCOCC2)cc1 | -8.87
Cc1ccc(S(=O)(=O)NCC2COc3ccccc3O2)cc1 (centres undefined) | 8.5
CC(C)c1ccc(/C=N/n2c(COc3ccccc3)n[nH]c2=S)cc1 | 16
COc1ccc(OCCNC(=S)Nc2cccc3ccccc23)cc1 | 1.76
Cc1ncc(CN2CCC(N3CCC(C(=O)N4CCCC4)CC3)CC2)s1 | -1.84
Cn1c(=O)n(CC(=O)O)c(=O)c2c1nc1n2CCS1 | -6.65
COc1ccc(C2c3c(oc4ccccc4c3=O)C(=O)N2CCCN2CCOCC2)cc1 (centres undefined) | -3.55
O=C(CN1C(=O)c2cccnc2Oc2ccc(Cl)cc21)Nc1ccc(F)cc1 | -11.6
Cc1ccc(S(=O)(=O)NCCCCCC(=O)Nc2ccccn2)cc1 | 24.2
CN(NC(=O)c1c(Cl)cccc1Cl)c1cccc(Cl)n1 | 49.7
O=C(Cn1cnc2c(nnn2-c2cccc(F)c2)c1=O)Nc1ccc2c(c1)OCCO2 | -2.78
CCC(C)NC(=O)C1CCN(S(=O)(=O)c2ccc3[nH]c(=O)ccc3c2)CC1 (centres undefined) | -5.24
COCCCNCCOc1ccc(C)cc1[N+](=O)[O-] | -5.82
Cc1ccc(CNC(=O)c2ccccc2NC(=O)CSc2nnnn2C)cc1 | 19.2
Cc1ccc(-c2nc3[nH]c(=O)cc(NC(=O)C(C)C)n3n2)cc1 | 9.7
CC1CN(c2ccc([N+](=O)[O-])cc2F)CCN1C(=O)c1ccco1 (centres undefined) | 11.4
COc1ccc(OCC(=O)NNC(=O)c2cccnc2)cc1 | 0.82
CC(C)C(=O)c1cc2c(cc1NC(=O)c1ccccc1)OCCO2 | -2.35
CCOC(=O)C1C(=O)NC(SC)=C(C#N)C1c1ccccc1F (centres undefined) | -1.22
CCN1CCN(C(=O)Cn2c(=O)sc3ccccc32)CC1 | -2.88
CCOC(=O)c1cc2c(=O)c3ccccc3oc2nc1C | -0.55

Source: PubChem BioAssay AID434955 (Southern Research Specialized Biocontainment Screening …, 2010)
